First the molecules themselves.
T1: RBFOX1 RRM RbFoxmut (Fox-RRM*) (Homo sapiens, UniProt Q9NWB1 109-208, R118D;E147R;N151S;E152T)
T1 sequence: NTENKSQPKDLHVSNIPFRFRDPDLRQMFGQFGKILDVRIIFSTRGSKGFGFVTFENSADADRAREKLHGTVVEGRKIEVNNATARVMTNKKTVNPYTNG

B1: GCUUACU (DNA:RNA)
RNA: GGGAGACCGGAAUUCAGAUUGUCCGCUUACUUUAAAUCCCGUCGUAGCCACCA
DNA 1: CAATCTGAATTCCGGTCTCCC
DNA 2: TGGTGGCTACGACGGGATT
B2: GAUAGUU (DNA:RNA)
RNA: B1 RNA with C26A, U28A, A29G, C30U
DNA 1: CAATCTGAATTCCGGTCTCCC
DNA 2: TGGTGGCTACGACGGGATT
B3: UGAAAAA (DNA:RNA)
RNA: B1 RNA with G25U, C26G, U27A, U28A, C30A, U31A
DNA 1: CAATCTGAATTCCGGTCTCCC
DNA 2: TGGTGGCTACGACGGGATT
B4: UCGAAUG (DNA:RNA)
RNA: B1 RNA with G25U, U27G, U28A, C30U, U31G
DNA 1: CAATCTGAATTCCGGTCTCCC
DNA 2: TGGTGGCTACGACGGGATT
B5: AACGCGC (DNA:RNA)
RNA: GGGAGACCGGAAUUCAGAUUGUCCAACGCGCUUAAAUCCCGUCGUAGCCACCA
DNA 1: CAATCTGAATTCCGGTCTCCC
DNA 2: TGGTGGCTACGACGGGATT
B6: CCGUGCU (DNA:RNA)
RNA: B1 RNA with G25C, U27G, A29G
DNA 1: CAATCTGAATTCCGGTCTCCC
DNA 2: TGGTGGCTACGACGGGATT
B7: AAGCGCG (DNA:RNA)
RNA: B5 RNA with C27G, G28C, C29G, G30C, C31G
DNA 1: CAATCTGAATTCCGGTCTCCC
DNA 2: TGGTGGCTACGACGGGATT
B8: ACCGAUC (DNA:RNA)
RNA: B5 RNA with A26C, C29A, G30U
DNA 1: CAATCTGAATTCCGGTCTCCC
DNA 2: TGGTGGCTACGACGGGATT
B9: GCUCGCG (DNA:RNA)
RNA: B1 RNA with U28C, A29G, U31G
DNA 1: CAATCTGAATTCCGGTCTCCC
DNA 2: TGGTGGCTACGACGGGATT
B10: CGUUAAU (DNA:RNA)
RNA: B1 RNA with G25C, C26G, C30A
DNA 1: CAATCTGAATTCCGGTCTCCC
DNA 2: TGGTGGCTACGACGGGATT
B11: CUACCAG (DNA:RNA)
RNA: B5 RNA with A25C, A26U, C27A, G28C, G30A, C31G
DNA 1: CAATCTGAATTCCGGTCTCCC
DNA 2: TGGTGGCTACGACGGGATT
B12: UUUAAGC (DNA:RNA)
RNA: B5 RNA with A25U, A26U, C27U, G28A, C29A
DNA 1: CAATCTGAATTCCGGTCTCCC
DNA 2: TGGTGGCTACGACGGGATT
B13: CUGUGGC (DNA:RNA)
RNA: B5 RNA with A25C, A26U, C27G, G28U, C29G
DNA 1: CAATCTGAATTCCGGTCTCCC
DNA 2: TGGTGGCTACGACGGGATT
B14: GGACAAC (DNA:RNA)
RNA: B1 RNA with C26G, U27A, U28C, C30A, U31C
DNA 1: CAATCTGAATTCCGGTCTCCC
DNA 2: TGGTGGCTACGACGGGATT
B15: GUGAUGA (DNA:RNA)
RNA: B5 RNA with A25G, A26U, C27G, G28A, C29U, C31A
DNA 1: CAATCTGAATTCCGGTCTCCC
DNA 2: TGGTGGCTACGACGGGATT
B16: CGUGUGA (DNA:RNA)
RNA: B5 RNA with A25C, A26G, C27U, C29U, C31A
DNA 1: CAATCTGAATTCCGGTCTCCC
DNA 2: TGGTGGCTACGACGGGATT
B17: CUGAUGC (DNA:RNA)
RNA: B5 RNA with A25C, A26U, C27G, G28A, C29U
DNA 1: CAATCTGAATTCCGGTCTCCC
DNA 2: TGGTGGCTACGACGGGATT
B18: GUGAUGG (DNA:RNA)
RNA: B5 RNA with A25G, A26U, C27G, G28A, C29U, C31G
DNA 1: CAATCTGAATTCCGGTCTCCC
DNA 2: TGGTGGCTACGACGGGATT
B19: CCCCUGG (DNA:RNA)
RNA: B5 RNA with A25C, A26C, G28C, C29U, C31G
DNA 1: CAATCTGAATTCCGGTCTCCC
DNA 2: TGGTGGCTACGACGGGATT
B20: AUCCGUA (DNA:RNA)
RNA: B5 RNA with A26U, G28C, C29G, G30U, C31A
DNA 1: CAATCTGAATTCCGGTCTCCC
DNA 2: TGGTGGCTACGACGGGATT
B21: CAAUAGC (DNA:RNA)
RNA: B5 RNA with A25C, C27A, G28U, C29A
DNA 1: CAATCTGAATTCCGGTCTCCC
DNA 2: TGGTGGCTACGACGGGATT
B22: ACGAAGG (DNA:RNA)
RNA: B5 RNA with A26C, C27G, G28A, C29A, C31G
DNA 1: CAATCTGAATTCCGGTCTCCC
DNA 2: TGGTGGCTACGACGGGATT
B23: CCGUUAA (DNA:RNA)
RNA: B1 RNA with G25C, U27G, A29U, C30A, U31A
DNA 1: CAATCTGAATTCCGGTCTCCC
DNA 2: TGGTGGCTACGACGGGATT
B24: CCACACC (DNA:RNA)
RNA: B1 RNA with G25C, U27A, U28C, U31C
DNA 1: CAATCTGAATTCCGGTCTCCC
DNA 2: TGGTGGCTACGACGGGATT
B25: CGAAUAG (DNA:RNA)
RNA: GGGAGACCGGAAUUCAGAUUGUCCCGAAUAGUUAAAUCCCGUCGUAGCCACCA
DNA 1: CAATCTGAATTCCGGTCTCCC
DNA 2: TGGTGGCTACGACGGGATT
B26: CCACCGG (DNA:RNA)
RNA: B25 RNA with G26C, A28C, U29C, A30G
DNA 1: CAATCTGAATTCCGGTCTCCC
DNA 2: TGGTGGCTACGACGGGATT
B27: AUGCGGA (DNA:RNA)
RNA: B5 RNA with A26U, C27G, G28C, C29G, C31A
DNA 1: CAATCTGAATTCCGGTCTCCC
DNA 2: TGGTGGCTACGACGGGATT
B28: GGUCGGG (DNA:RNA)
RNA: B25 RNA with C25G, A27U, A28C, U29G, A30G
DNA 1: CAATCTGAATTCCGGTCTCCC
DNA 2: TGGTGGCTACGACGGGATT
B29: AAUGAAA (DNA:RNA)
RNA: B5 RNA with C27U, C29A, G30A, C31A
DNA 1: CAATCTGAATTCCGGTCTCCC
DNA 2: TGGTGGCTACGACGGGATT
B30: GAGUUCU (DNA:RNA)
RNA: B1 RNA with C26A, U27G, A29U
DNA 1: CAATCTGAATTCCGGTCTCCC
DNA 2: TGGTGGCTACGACGGGATT
B31: UAUAGUU (DNA:RNA)
RNA: B1 RNA with G25U, C26A, U28A, A29G, C30U
DNA 1: CAATCTGAATTCCGGTCTCCC
DNA 2: TGGTGGCTACGACGGGATT

Substitutions are numbered along the chain they refer to; changes in the protein carry UniProt numbers. Some of the results follow.

The target of this assay is T1, RBFOX1 RRM RbFoxmut (Fox-RRM*). Description: EMSA; HiTS-Eq, 1 nM pool, 10 min; buffer printed only for the single-RNA assays: 10 mM Tris pH 7.5, 150 mM NaCl, 3.4 mM EDTA, 0.001% NP-40, 30 C. The following applies: tags: His6 N-terminal (pET28a); label: 5' 32P. A digest of the protocol: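 Relative association constants, normalised to the cognate motif, were derived by comparing read counts of each RNA species with those of the control reaction. The RNA sequenced was the free fraction, separated by 8% native PAGE after a 10 min equilibration in 50 µL of 1 nM 5′-radiolabelled RNA (7 randomized nucleotides) with increasing concentrations of purified wild-type or mutant RbFox RRM.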
For the molecule B1, the binding signal was 0.114 KA relative to UGCAUGU.

For the molecule B2, the binding signal is 0.0976 KA relative to UGCAUGU.

Consider B3, for which the binding signal was 0.0525 KA relative to UGCAUGU.

B4: the binding signal was 1.31 KA relative to UGCAUGU.

In the case of B5, the binding signal is 0.0864 KA relative to UGCAUGU.

For the molecule B6, the binding signal was 0.106 KA relative to UGCAUGU.

Turning to B7, the binding signal is 0.163 KA relative to UGCAUGU.

B8: the binding signal is 0.0582 KA relative to UGCAUGU.

In the case of B9, the binding signal is 0.109 KA relative to UGCAUGU.

Consider B10, for which the binding signal is 0.0999 KA relative to UGCAUGU.

On to B11, for which the binding signal was 0.0672 KA relative to UGCAUGU.

Consider B12, for which the binding signal was 0.103 KA relative to UGCAUGU.

On to B13, for which the binding signal was 0.102 KA relative to UGCAUGU.

Consider B14, for which the binding signal is 0.0564 KA relative to UGCAUGU.

Turning to B15, the binding signal is 0.147 KA relative to UGCAUGU.

On to B16, for which the binding signal is 0.162 KA relative to UGCAUGU.

Regarding B17, the binding signal is 0.0932 KA relative to UGCAUGU.

With B18, the binding signal was 0.114 KA relative to UGCAUGU.

As to B19, the binding signal was 0.0629 KA relative to UGCAUGU.

For B20, the binding signal was 0.145 KA relative to UGCAUGU.

On to B21, for which the binding signal was 0.0872 KA relative to UGCAUGU.

Regarding B22, the binding signal is 0.08 KA relative to UGCAUGU.

Consider B23, for which the binding signal was 0.0883 KA relative to UGCAUGU.

Turning to B24, the binding signal is 0.117 KA relative to UGCAUGU.

Take B25: the binding signal was 0.118 KA relative to UGCAUGU.

Regarding B26, the binding signal was 0.0663 KA relative to UGCAUGU.

For B27, the binding signal was 0.1 KA relative to UGCAUGU.

As to B28, the binding signal was 0.0602 KA relative to UGCAUGU.

For the molecule B29, the binding signal was 0.0929 KA relative to UGCAUGU.

B30: the binding signal is 0.0638 KA relative to UGCAUGU.

Consider B31, for which the binding signal is 0.0903 KA relative to UGCAUGU.
